# Results published in PubChem BioAssay (NCATS).
# Inconclusive results, whose numbers are uncertain, are shown with a selection of clear calls. For some assays here: Where the call is inconclusive, the potency comes from a doubtful curve fit. The source made the active and inactive calls. Unless noted, calls follow the shape of the dose curve; as a rule, active = well fitted curve in the direction sought with a large enough effect; inconclusive = small, poorly fitted or top-dose-only effect, or another doubt; inactive = no such curve, though single readings can be large; an effect the other way counts as inactive or inconclusive.
# Tests used:
# [1] = Cytometric Cell-Based qHTS for Inhibitors of the mTORC1 Signaling Pathway in MEF (Tsc2-/-, p53-/-) Cells (AID 2660); also: potency is read from the fitted curve at half-maximal effect
# How it was run: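 Percent of cells positive for normalized phospho-S6 staining is reported, with the cutoff set from rapamycin (7.5 nM) versus DMSO wells. Tsc2-/-, p53-/- MEFs received compound for 24 hrs.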
# [2] = High Content Imaging Cell-Based qHTS for Inhibitors of the mTORC1 Signaling Pathway in MEF Cells (AID 2667); also: potency is read from the fitted curve at half-maximal effect
# How it was run: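 WT MEFs (Tsc2-/-, p53-/- re-expressing Tsc2), in DMEM + 10% FBS, were treated with compound for 24 h at 37 C. Cells were then fixed and stained for phospho-rpS6 Ser235/236 with propidium iodide as cell count. Values are % positive cells, with thresholds set against rapamycin-treated cells.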
# [3] = qHTS Validation Assay to Find Inhibitors of Chronic Active B-Cell Receptor Signaling (AID 485345; active = well fitted curve in the direction sought with a large enough effect in the main read-out, with a control signal flat, not every such curve was filed as active; inconclusive = small, poorly fitted or top-dose-only effect, or effect the other way, or a change in a side signal; inactive = no such curve, though single readings can be large or run the other way; also: potency is read from the fitted curve at half-maximal effect;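 as to activity change: 0% = untreated basal cells and 100% = 10 µM MG-132 proteasome inhibitor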); conditions: ABC-DLBCL cells, chronic BCR signaling reporter; activity change: CBG luciferase, at 46.1 µM (top of the series)
# How it was run: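 TMD8 ABC-DLBCL cells stably carrying doxycycline-inducible IkappaBalpha–green luciferase fusion plus unfused red luciferase; compounds 46 uM to 3 nM, 4 h at 37C with doxycycline. Corrected green/red luminescence ratio normalized to 10 uM MG-132 and basal cell wells; curves fitted.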
# [4] = Quantitative high throughput screen for delayed death inhibitors of the malarial parasite plastid, 48 hour incubation (AID 488752); also: potency is read from the fitted curve at half-maximal effect; nearly all actives have a fitted effect of over 65% in size
# How it was run: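 Erythrocytes infected with P. falciparum carrying an integrated firefly luciferase reporter (2% hematocrit, 0.1% parasitemia final) were exposed to compounds in RPMI 1640/0.5% Albumax for 48 h at 37 C, 5% CO2. Growth inhibition was scored as reduced luminescence.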
# [5] = biological target: Tyrosine-protein phosphatase non-receptor type substrate 1 (Homo sapiens) + Leukocyte surface antigen CD47 (Homo sapiens) (UniProt P78324+Q08722); assay: CD47-SIRPalpha protein protein interaction - Alpha assay qHTS validation (AID 1347059);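 also: bead proximity luminescence from CD47 binding SIRPalpha after compound preincubation with SIRPalpha; % is scaled to controls: 0 for no effect and ±100 for the full control effect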
# Sequence of UniProt P78324 (P78324 whole entry, looked up): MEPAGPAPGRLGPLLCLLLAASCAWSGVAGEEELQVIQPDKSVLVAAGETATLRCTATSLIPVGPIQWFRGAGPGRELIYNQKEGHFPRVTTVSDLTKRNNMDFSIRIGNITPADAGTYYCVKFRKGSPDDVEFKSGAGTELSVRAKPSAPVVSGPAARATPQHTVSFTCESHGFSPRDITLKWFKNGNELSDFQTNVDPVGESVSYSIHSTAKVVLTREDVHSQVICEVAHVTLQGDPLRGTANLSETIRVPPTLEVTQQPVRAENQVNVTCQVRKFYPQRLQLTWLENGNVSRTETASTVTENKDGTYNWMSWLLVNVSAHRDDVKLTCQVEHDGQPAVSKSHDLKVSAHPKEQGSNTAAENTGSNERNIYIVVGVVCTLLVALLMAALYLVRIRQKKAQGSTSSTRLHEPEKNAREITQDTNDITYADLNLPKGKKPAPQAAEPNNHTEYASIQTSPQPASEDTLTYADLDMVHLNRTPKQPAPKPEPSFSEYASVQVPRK
# Sequence of UniProt P78324 (Q08722 whole entry, looked up): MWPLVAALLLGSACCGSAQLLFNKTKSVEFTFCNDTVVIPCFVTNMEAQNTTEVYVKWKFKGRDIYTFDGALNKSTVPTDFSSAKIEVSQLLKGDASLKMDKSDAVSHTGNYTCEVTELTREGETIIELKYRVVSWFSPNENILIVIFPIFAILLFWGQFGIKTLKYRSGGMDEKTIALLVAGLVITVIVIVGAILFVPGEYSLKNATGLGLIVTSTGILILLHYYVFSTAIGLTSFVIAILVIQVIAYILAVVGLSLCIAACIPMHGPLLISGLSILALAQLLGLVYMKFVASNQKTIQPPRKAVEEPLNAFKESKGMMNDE
# How it was run: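 Biotinylated Avi-tagged SIRPalpha (25 nM) preincubated 30 min with compound, then His-tagged CD47 (12.5 nM) added 30 min; AlphaScreen with Ni-NTA acceptor and streptavidin donor beads. PBS pH 7.4, 0.05% IGEPAL, room temperature; 7-point titrations.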
# [6] = qHTS assay to identify inhibitors of the type 1 interferon - major histocompatibility complex class I in skeletal muscle: Counter screen cell viability and HiBit confirmation (AID 1347412); conditions: iHSKM muscle cells + IFN-b, HiBiT or CellTiter-Glo, 24 h; for activity change, negative = inhibition: at 45.9 µM (top of the series); also: potency is read from the fitted curve at half-maximal effect; as to activity change, negative = inhibition: % is scaled to controls: 0 for no effect and ±100 for the full control effect; as to all read-outs here: nearly all actives have a fitted effect of over 60% in size
# How it was run: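 Human myoblast knock-in line, 4.0 ng/ml IFN-beta stimulation, 24 h compound treatment. Endpoints: HiBiT lytic luminescence (HLA-B level) and CellTiter Glo (ATP). Dosing 12 concentrations, 3-fold steps, 46 uM highest final.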
# [7] = biological target: D(1A) dopamine receptor (Homo sapiens) (UniProt P21728); assay: HTS Assay for Allosteric Agonists of the Human D1 Dopamine Receptor: Primary Screen for Agonists (AID 488981); also: potency is read from the fitted curve at half-maximal effect
# Sequence of UniProt P21728 (P21728 whole entry, looked up): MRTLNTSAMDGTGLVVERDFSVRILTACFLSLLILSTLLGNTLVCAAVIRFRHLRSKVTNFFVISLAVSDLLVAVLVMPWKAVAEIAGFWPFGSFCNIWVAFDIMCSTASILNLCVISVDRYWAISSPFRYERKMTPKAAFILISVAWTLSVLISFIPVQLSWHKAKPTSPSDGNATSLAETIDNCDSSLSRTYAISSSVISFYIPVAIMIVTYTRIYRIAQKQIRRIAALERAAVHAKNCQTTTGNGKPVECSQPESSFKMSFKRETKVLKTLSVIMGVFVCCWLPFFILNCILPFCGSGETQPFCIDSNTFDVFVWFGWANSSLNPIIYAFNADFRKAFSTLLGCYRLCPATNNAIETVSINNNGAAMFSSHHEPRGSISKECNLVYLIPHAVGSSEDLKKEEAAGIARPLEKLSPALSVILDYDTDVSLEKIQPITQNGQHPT
# How it was run: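 Tetracycline-induced HEK293 Trex D1 cells with forced coupling to calcium, loaded with no-wash calcium dye; kinetic fluorescence read 180 s after compound addition for agonism, then a further 180 s after an EC20 dopamine challenge for potentiation.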
# [8] = biological target: D(1A) dopamine receptor (Homo sapiens) (UniProt P21728); assay: HTS Assay for Allosteric Agonists of the Human D1 Dopamine Receptor: Primary Screen for Antagonists (AID 488983);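 also: calcium flux response to an EC80 dopamine challenge measured with no-wash dye; potency is read from the fitted curve at half-maximal effect; nearly all actives have a fitted effect of over 65% in size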
# How it was run: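 Tetracycline-induced HEK293 T-REx cells expressing force-coupled D1 were plated overnight at 30 C, dye-loaded for calcium, and read kinetically. Compounds were pinned in, then an EC80 dopamine challenge followed after 180 s to reveal antagonism.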
# [9] = Validation screen for small molecules that induce DNA re-replication in SW480 colon adenocarcinoma cells (AID 504364); also: potency is read from the fitted curve at half-maximal effect
# How it was run: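 SW480 cells seeded at 250 per well were exposed to compound or DMSO for 48 hr at 37 C, 5% CO2, then stained with Hoechst for 40 min. DNA content per nucleus was imaged (405 nm ex, 500-530 nm em).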
# Papain (Carica papaya) = Papain (Carica papaya) (UniProt P00784); assay: Primary qHTS assay for inhibitors of the protease papain (AID 1645873)
# Sequence of UniProt P00784 (P00784 whole entry, looked up): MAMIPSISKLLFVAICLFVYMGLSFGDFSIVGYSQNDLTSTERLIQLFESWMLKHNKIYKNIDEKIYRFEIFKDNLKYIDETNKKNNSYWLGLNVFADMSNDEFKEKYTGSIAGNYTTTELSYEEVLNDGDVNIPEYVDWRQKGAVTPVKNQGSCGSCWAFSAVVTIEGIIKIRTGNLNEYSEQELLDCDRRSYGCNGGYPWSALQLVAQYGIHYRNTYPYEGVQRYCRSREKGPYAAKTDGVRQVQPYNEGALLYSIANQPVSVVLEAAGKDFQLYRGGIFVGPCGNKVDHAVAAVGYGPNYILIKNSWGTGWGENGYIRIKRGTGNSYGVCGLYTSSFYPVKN
# [10] = NFAT Signaling Pathway (AID 444; active = well fitted curve in either direction with a large enough effect, not every such curve was filed as active; inconclusive = small, poorly fitted or top-dose-only effect, or another doubt;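 also: carbachol stimulus at about its EC50 of 1 µM final; % is scaled to controls: 0 for no effect and ±100 for the full control effect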); conditions: Jurkat NFAT-bla M1, carbachol, beta-lactamase ratio, 5 h; at 7.69 µM (top of the series) unless noted
# How it was run: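 Jurkat cells with NFAT-driven β-lactamase reporter and co-expressed M1 receptor, stimulated with carbachol (final 1 uM, ~EC50), compound titration, 5 h at 37 °C. CCF4 loaded 1 h at RT; 460/530 nm ratio gave %activity and AC50.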
# [11] = Nrf2 qHTS screen for inhibitors: Validation (AID 493153; active = well fitted inhibition curve with a large enough effect in the main read-out, with a control signal flat, not every such curve was filed as active; inconclusive = small, poorly fitted or top-dose-only effect, or effect the other way, or a change in a side signal; inactive = no such curve, though single readings can be large or run the other way; also: potency is read from the fitted curve at half-maximal effect)
# How it was run: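 A549 cells carrying an ARE-driven firefly luciferase reporter, in 5% FBS OPTI-MEM, were treated with compounds in concentration-response for 18-24 h at 37°C. Viability was read by CellTiter-Fluor fluorescence, then Nrf2 activity by luciferase luminescence.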
# [12] = biological target: Muscarinic acetylcholine receptor M1 (Rattus norvegicus) (UniProt P08482); assay: qHTS Assay for Antagonists of Acetylcholine Muscarinic M1 Receptor: Measurement of IP-One Response (AID 944); also: nearly all actives have a fitted effect of over 75% in size; also: potency is read from the fitted curve at half-maximal effect
# Sequence of UniProt P08482 (P08482 whole entry, looked up): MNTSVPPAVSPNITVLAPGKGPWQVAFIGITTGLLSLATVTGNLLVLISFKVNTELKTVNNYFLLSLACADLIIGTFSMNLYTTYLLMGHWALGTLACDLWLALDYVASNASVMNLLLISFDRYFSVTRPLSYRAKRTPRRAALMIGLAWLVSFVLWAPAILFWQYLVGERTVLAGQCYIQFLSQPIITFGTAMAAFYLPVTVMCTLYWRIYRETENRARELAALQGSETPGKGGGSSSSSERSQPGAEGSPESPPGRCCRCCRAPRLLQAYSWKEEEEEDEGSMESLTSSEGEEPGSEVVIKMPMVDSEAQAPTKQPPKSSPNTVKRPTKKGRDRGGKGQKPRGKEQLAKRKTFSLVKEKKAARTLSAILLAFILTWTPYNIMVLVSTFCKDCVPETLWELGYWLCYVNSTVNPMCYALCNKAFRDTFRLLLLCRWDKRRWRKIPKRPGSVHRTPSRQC
# [13] = biological target: Peptidyl-prolyl cis-trans isomerase NIMA-interacting 1 (Homo sapiens) (UniProt Q13526); assay: qHTS Validation Assay to Find Inhibitors of Pin1 (AID 504536; active = well fitted inhibition curve with a large enough effect in the polarisation, with a control signal flat, not every such curve was filed as active; inconclusive = small, poorly fitted or top-dose-only effect, or effect the other way; the % refers to the polarisation;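 also: 0% = full Pin1 enzyme wells and -100% = no-enzyme wells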)
# Sequence of UniProt Q13526 (Q13526 whole entry, looked up): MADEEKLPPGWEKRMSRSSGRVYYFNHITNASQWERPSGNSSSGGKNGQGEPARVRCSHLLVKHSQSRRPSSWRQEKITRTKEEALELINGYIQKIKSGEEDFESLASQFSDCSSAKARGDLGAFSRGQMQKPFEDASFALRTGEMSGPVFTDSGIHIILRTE
# How it was run: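 Fluorescence polarization competition: compounds (titration) displace HiFluor-488-labeled Pin1-1b peptide from Pin1 (0.3 uM final) in pH 7.5 HEPES buffer with DTT, 10 min at room temperature; %Activity normalized to no-enzyme wells, curves fitted.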
# [14] = biological target: 3',5'-cyclic-AMP phosphodiesterase 4B (Homo sapiens) (UniProt Q07343); assay: qHTS Assay for Inhibitors of PDE-IV (AID 607; active = well fitted activation curve with a large enough effect in the main read-out, with a control signal flat, not every such curve was filed as active; inconclusive = small, poorly fitted or top-dose-only effect, or effect the other way, or a change in a side signal; also: % of control where 0% means no effect); conditions: HEK293 ACTOne CNG channel cells, membrane potential fluorescence; activation (PDE inhibition): at 22.9 µM (top of the series)
# Sequence of UniProt Q07343 (Q07343 whole entry, looked up): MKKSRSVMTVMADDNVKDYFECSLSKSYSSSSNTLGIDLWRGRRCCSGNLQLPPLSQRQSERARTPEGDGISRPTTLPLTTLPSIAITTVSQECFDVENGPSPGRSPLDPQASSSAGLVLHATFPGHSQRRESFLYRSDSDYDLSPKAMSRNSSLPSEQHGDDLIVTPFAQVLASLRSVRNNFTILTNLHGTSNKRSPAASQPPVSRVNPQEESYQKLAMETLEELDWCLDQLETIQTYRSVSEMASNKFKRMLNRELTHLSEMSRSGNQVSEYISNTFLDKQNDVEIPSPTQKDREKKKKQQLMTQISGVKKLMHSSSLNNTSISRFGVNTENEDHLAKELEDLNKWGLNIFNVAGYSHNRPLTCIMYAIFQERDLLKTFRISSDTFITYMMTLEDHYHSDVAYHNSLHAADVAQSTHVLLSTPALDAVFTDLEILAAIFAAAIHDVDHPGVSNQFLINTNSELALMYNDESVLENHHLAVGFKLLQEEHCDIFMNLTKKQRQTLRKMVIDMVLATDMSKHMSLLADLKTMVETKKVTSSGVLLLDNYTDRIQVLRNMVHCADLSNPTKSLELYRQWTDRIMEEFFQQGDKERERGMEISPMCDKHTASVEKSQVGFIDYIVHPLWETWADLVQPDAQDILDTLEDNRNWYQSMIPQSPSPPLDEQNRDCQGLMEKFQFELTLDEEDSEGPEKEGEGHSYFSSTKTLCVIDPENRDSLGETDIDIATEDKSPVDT
# How it was run: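 Live HEK293 cells with a modified cyclic nucleotide-gated (CNG) channel report intracellular cAMP via membrane-potential dye fluorescence (ex 535/em 590 nm). Endogenous PDE-IV was targeted. Compounds were tested at up to 22.9 uM final; RO 20-1724 100 uM served as control.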
# [15] = qHTS Assay for Identification of Small Molecule Agonists for Thrombopoietin (TPO) Signaling Pathway (AID 917); also: potency is read from the fitted curve at half-maximal effect
# How it was run: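 IL-3-dependent murine pro-B Ba/F3 cells, stably transfected with human TPO receptor and GpIIb-promoter luciferase, are incubated 24 hrs at 37 C with test compound and 26 pM TPO; luciferase signal is read after 10 min at room temperature.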
# [16] = biological target: M-phase phosphoprotein 8 (Homo sapiens) (UniProt Q99549); assay: qHTS Validation Assay for Inhibitors for MPP8 Chromodomain Interactions with Methylated Histone Tails (AID 488949); also: potency is read from the fitted curve at half-maximal effect; nearly all actives have a fitted effect of over 55% in size
# Sequence of UniProt Q99549 (Q99549 whole entry, looked up): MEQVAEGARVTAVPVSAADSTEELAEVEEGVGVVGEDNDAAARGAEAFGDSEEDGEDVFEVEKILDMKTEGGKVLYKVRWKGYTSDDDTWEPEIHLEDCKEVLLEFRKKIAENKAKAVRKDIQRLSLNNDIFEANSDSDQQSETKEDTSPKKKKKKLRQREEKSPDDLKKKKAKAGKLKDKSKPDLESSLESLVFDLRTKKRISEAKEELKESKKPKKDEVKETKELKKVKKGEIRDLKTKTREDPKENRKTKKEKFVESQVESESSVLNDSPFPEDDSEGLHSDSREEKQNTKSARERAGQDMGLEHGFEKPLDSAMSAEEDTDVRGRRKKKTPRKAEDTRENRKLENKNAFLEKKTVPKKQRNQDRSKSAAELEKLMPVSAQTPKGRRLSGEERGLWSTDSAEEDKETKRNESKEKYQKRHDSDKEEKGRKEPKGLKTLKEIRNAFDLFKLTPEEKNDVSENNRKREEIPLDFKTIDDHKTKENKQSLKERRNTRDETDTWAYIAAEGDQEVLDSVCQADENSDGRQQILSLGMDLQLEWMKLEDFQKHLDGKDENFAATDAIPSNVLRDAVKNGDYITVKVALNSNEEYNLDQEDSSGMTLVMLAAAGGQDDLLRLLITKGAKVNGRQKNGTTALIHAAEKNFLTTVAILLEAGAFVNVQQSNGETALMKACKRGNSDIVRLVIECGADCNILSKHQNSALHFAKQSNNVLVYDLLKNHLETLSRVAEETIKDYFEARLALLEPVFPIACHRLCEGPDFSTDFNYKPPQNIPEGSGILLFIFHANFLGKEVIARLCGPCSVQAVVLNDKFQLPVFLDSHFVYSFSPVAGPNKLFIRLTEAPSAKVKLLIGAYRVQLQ
# How it was run: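 Chemiluminescent proximity assay: histidine-tag capture via nickel acceptor beads, biotin peptide via streptavidin donor beads. Protein and peptide each at 50 nM, pH 7.4, with 30 min incubations at room temperature for complex formation, compound exposure and bead binding.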
# Tags tell the direction and shape of the fitted curve.
smiles,measurement,setting,value
CC1(C(=O)O)C2CCC(O2)C1(C)C(=O)O (centres undefined),Potency,[1],active: 13.1 µM
same,Potency,[2],active: 3.69 µM
same,Potency,[3],"inconclusive: 2.91 µM [falling, full curve]"
same,Potency,[4],active: 5.22 µM
same,Potency,[5],inactive
same,"activity change, negative = inhibition",[6]; HiBiT,inactive: -1.02%
same,"activity change, negative = inhibition",[6]; Viability,inactive: 1.43%
CNc1ccc2oc(C[C@H]3O[C@@]4(CC[C@H]3C)O[C@H]([C@H](C)C(=O)c3ccc[nH]3)[C@H](C)C[C@H]4C)nc2c1C(=O)O,Potency,[1],active: 14.7 µM
same,Potency,[2],"inconclusive: 1.47 µM [falling, full curve, poor fit]"
same,activity change,[3],inconclusive: 31%
same,Potency,[7],active: 0.398 µM
same,Potency,[8],"inconclusive: 0.355 µM [activator, full curve, poor fit]"
same,Potency,[9],"inconclusive: 29.1 µM [activator, single point]"
same,Potency,Papain (Carica papaya),"inconclusive: 11.2 µM [inhibitor, partial curve]"
same,Potency,[6]; Viability,"inconclusive: 2.79 µM [cytotoxic, full curve]"
CCCCCCC(C)(C)c1ccc([C@@H]2C[C@H](O)CC[C@H]2CCCO)c(O)c1,"activity change, negative = inhibition",[10],inconclusive: -87.8% [inhibitor] [at 38 µM]
same,Potency,[1],"inconclusive: 16.5 µM [falling, single point]"
same,Potency,[4],active: 11.7 µM
CCNC(=O)[C@H]1O[C@@H](n2cnc3c(N)ncnc32)[C@H](O)[C@@H]1O,Potency,[11],"inconclusive: 2.31 µM [inhibitor, partial curve, poor fit]"
Cc1sc2ccccc2c1CC1=NCCN1,Potency,[12],inactive
same,Potency,[8],active: 10 µM
same,Potency,[13],inactive
same,Potency,Papain (Carica papaya),active: 28.2 µM
Nc1ccc(CCN2CCN(c3cccc(C(F)(F)F)c3)CC2)cc1,"activity change, negative = inhibition",[10],inconclusive: -49.3% [inhibitor] [at 38 µM]
same,Potency,[14],inactive
same,Potency,[15],"inconclusive: 3.16 µM [inhibitor, partial curve]"
same,Potency,[12],"inconclusive: 14.1 µM [inhibitor, partial curve, poor fit]"
same,Potency,[16],"inconclusive: 44.7 µM [inhibitor, partial curve]"
same,Potency,[8],"inconclusive: 1.12 µM [inhibitor, partial curve]"
